Measurements as given in PubChem BioAssay AID624171 (National Center for Advancing Translational Sciences (NCATS), 2012).
The whole screen tested about 410,000 compounds, of which about 1,200 (0.29%) were called active. Inconclusive means that the source gave no clear call. Such entries were picked first, then a sample of the others. Calls come from the whole dose curve; as a rule, active = well fitted activation curve with a large enough effect; inconclusive = small, poorly fitted or top-dose-only effect; inactive = flat fitted curve, though single readings scatter. Potencies beside an inconclusive call are fits to weak or partial responses and may not hold up.

assay: qHTS of Nrf2 Activators; conditions: AREc32 ARE-luciferase reporter (MCF7-derived line), luminescence, 24 h; series mostly up to 46.1 µM; note: nearly all actives have a fitted effect of over 65% in size
Outline: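 Luminescent ARE reporter assay in AREc32_Fluc cells: overnight plating at 37 deg C, 24 hr compound incubation, Steady-Glo added, 30 min RT before reading.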
Potency is the fitted concentration of half-maximal effect; tags give direction and shape of the fitted curve.

Potency, inconclusive:
O=C(CC(c1ccco1)C1CCCCC1=O)c1ccco1 (configuration not stated) 31.6 µM [activator, partial curve, poor fit]
O=C(NN(c1ccccc1)c1ccccc1)c1ccc([N+](=O)[O-])o1 5.62 µM [activator, single point]
Cc1ccc(/C(N)=N/OC(=O)c2cccs2)cc1 11.2 µM [activator, partial curve, poor fit]
CCC(C)c1ccc(O)c(N)c1 (configuration not stated) 17.8 µM [activator, partial curve, poor fit]
Fc1cccc(Cl)c1CNc1n[nH]c(-c2ccco2)n1 12.6 µM [activator, partial curve, poor fit]
CC(/C=N/n1c(-c2ccccc2)n[nH]c1=S)=C\c1ccco1 11.2 µM [activator, partial curve, poor fit]
CNc1ccc(Br)cc(C(=O)/C=C/c2ccc(OC)cc2)c1=O 11.2 µM [activator, single point]
OCCN=C1CCCc2c1[nH]c1ccc(Br)cc21 22.4 µM [activator, single point]
Nc1ncnc(Oc2cccc3cccnc23)c1[N+](=O)[O-] 31.6 µM [activator, single point]
O=c1c(Cl)c(NCCCO)cnn1-c1nc2ccccc2[nH]1 7.94 µM [activator, partial curve, poor fit]
COc1cc(CN2CC(=O)N(c3cc(Cl)ccc3C)C2=S)cc(OC)c1OC 17.8 µM [activator, single point]
COC(=O)c1cn(C(=O)/C=C/c2ccc(OC)c(OC)c2)c2ccccc12 3.16 µM [activator, partial curve, poor fit]
O=C(NCCN1C(=O)S/C(=C/c2cccnc2)C1=O)c1cccs1 25.1 µM [activator, single point]
CCOC(=O)NC1(NCc2ccccc2)Oc2ccccc2O1 25.1 µM [activator, single point]
CCOC1=CC2=C(C(=O)C(Cl)=CC2=O)[C@@H]2CN(S(=O)(=O)c3ccc(C)cc3)[C@@H](c3ccccc3)[C@H]12 35.5 µM [activator, single point]
COC(=O)c1ccccc1NC(=S)NC(NC(=O)c1ccco1)C(Cl)(Cl)Cl (configuration not stated) 25.1 µM [activator, single point]
O=C(CCl)NNC(=O)c1c(O)c2ccccc2[nH]c1=O 28.2 µM [activator, single point]
O=C(NC1CCCC(C(F)(F)F)C1)c1ccc([N+](=O)[O-])o1 (configuration not stated) 4.47 µM [activator, single point]
COC(=O)c1ccc2nc(-c3cccc(Cl)c3)c(Cc3ccccc3OC)n2c1 4.47 µM [activator, full curve]
O=C(CN1C(=O)/C(=C\c2ccccc2Cl)Sc2ccccc21)NCCCN1CCOCC1 15.8 µM [activator, single point]
CCOc1cc(N2CCOCC2)c(OCC)cc1NC(=O)COC(=O)[C@@H]1CCCN1S(=O)(=O)c1ccccc1F 22.4 µM [activator, single point]
Cc1nonc1NC(=O)CSc1nc(C2CCCCC2)nc2ccccc12 31.6 µM [activator, single point]
Cc1ccccc1NC(=O)c1cc2ccccn2n1 3.16 µM [activator, single point]
CC(C)c1cc(NC(=O)CCl)on1 25.1 µM [activator, single point]
CCN(CC)C(=O)COC(=O)c1cc(-c2ccco2)nc2ccccc12 12.6 µM [activator, single point]
Cc1cccc2nc(CSc3nnnn3-c3ccccc3)cn12 6.31 µM [activator, partial curve, poor fit]
O=C(Nc1nnc(-c2ccco2)s1)c1ccccc1 5.01 µM [activator, partial curve, poor fit]
O=C(N/N=C(\c1ccccc1)c1cccnc1)c1cccc(F)c1 12.6 µM [activator, single point]
N#Cc1ccc(Nc2ccccc2)c(N)c1 11.2 µM [activator, partial curve]
NS(=O)(=O)c1ccc(NC(=O)/C=C/c2ccccc2[N+](=O)[O-])cc1 11.2 µM [activator, partial curve, poor fit]
O=C(CCS(=O)(=O)c1ccc(F)cc1)Nc1nnc(-c2cccs2)o1 31.6 µM [activator, single point]
CC(=O)Oc1c(-c2ccc(Br)o2)oc2ccccc2c1=O 3.55 µM [activator, partial curve, poor fit]
O=C(/C=C/c1ccccc1Cl)c1ccccc(=O)c1O 5.62 µM [activator, single point]
Cc1cccc(NC(=S)N=Nc2c(O)n(CN3CCOCC3)c3ccccc23)c1C 11.2 µM [activator, partial curve, poor fit]
Cc1ccc(/C=C/C(=O)c2nc3ccccc3[nH]2)cc1 22.4 µM [activator, single point]
N#CCSc1nnc(COc2ccc3ccccc3c2)o1 35.5 µM [activator, single point]
COC(=O)C(=C/C=C/c1ccco1)C(=O)OC 5.62 µM [activator, full curve, poor fit]
C/C=C/C1=CC(=O)C[C@H](c2ccc(Cl)cc2)C1 22.4 µM [activator, single point]
COc1ccc(-c2csc3ncnc(Sc4nnnn4C)c23)cc1 2.82 µM [activator, partial curve, poor fit]
Cc1ccc(NC(=S)NC(=O)c2cccs2)cc1F 20 µM [activator, single point]
c1ccc(-c2csc(Nc3ccccn3)n2)cc1 2 µM [activator, partial curve, poor fit]
Cc1ccccc1N=CC1=C(O)c2ccccc2C1=O 6.31 µM [activator, full curve]
COc1ccccc1/C=C/C(=O)c1ccc(Cl)cc1 10 µM [activator, partial curve, poor fit]
Oc1cccc2ccc(/C=C/c3ccccc3Cl)nc12 5.62 µM [activator, full curve, poor fit]
CSc1nsc(/C=C/Nc2ccc(F)cc2)c1C#N 35.5 µM [activator, single point]
COc1ccc(Cl)cc1NC(=O)c1nc2nc(C)cc(C(F)F)n2n1 22.4 µM [activator, single point]

Potency, inactive:
O=C(NCCc1ccccc1)c1ccccc1NS(=O)(=O)N1CCCC1
COc1ccc(CCC(=O)Nc2ccc(S(=O)(=O)NC3=NCCCCC3)cc2)cc1
COc1cccc(CNC(=O)CN2N=C(c3ccc(C)cc3)CCC2=O)c1
Cc1ccc(C2=Nc3ccccc3N(CC(=O)Nc3ccccc3C)C(=O)C2)cc1C
O=C(O)c1ccccc1NS(=O)(=O)c1ccc2ccccc2c1
Cc1ccc(S(=O)(=O)N(C)C)cc1NC(=S)N(CCC#N)Cc1cccnc1
COc1ccc(NC(=O)Nc2cccc3c2O[C@H](CN(C)C(=O)Nc2ccc(OC)cc2)[C@@H](C)CN([C@H](C)CO)C3=O)cc1
CCN(CC)C(=O)c1nn(-c2ccccc2)c2c1C1CCC2(C)C1(C)C (configuration not stated)
O=C(Nc1ccc2[nH]ncc2c1)c1ccc(F)cc1
Cc1ccc(-n2ncc(C(=O)NCCc3ccsc3)c2C2CCN(C(=O)OC(C)(C)C)CC2)c(C)c1
CCc1ccc(S(=O)(=O)NCc2cccn2Cc2cccc(C)c2)cc1
O=C1CC(c2ccccc2)CC2=C1CN(C1CCCCC1)CN2 (configuration not stated)
COC(=O)c1ccc(C(=O)NC(=S)Nc2nc3c(s2)CCCC3)cc1
O=C(N/N=C/c1ccc2c(c1)OCO2)C1CC1
COc1ccc(/C=C/C(=O)Nc2c(C)nn(C)c2C)cc1COc1ccc(Cl)cc1Br
COc1ccc(-c2nc(CN3CCC(C(=O)NCCCOC(C)C)CC3)c(C)o2)cc1OC
CCN(Cc1nc2ccccc2c(=O)[nH]1)C(=O)COc1ccccc1Cc1ccccc1
O=C1c2ccccc2C(=O)c2c1ccc1c(=O)n(C3CCCCC3)[nH]c21
CSc1ccc(-c2nc3ncccn3c2Nc2ccc(C)c(C)c2)cc1
c1ccc2nc3[nH]cnc3nc2c1

Potency, active:
C/C(=N\NC(=O)CSc1nc2ccccc2s1)c1ccco1 7.08 µM
O=[N+]([O-])c1cccc(-c2cnc3ccccc3n2)c1 6.31 µM
Cc1ccc([N+](=O)[O-])cc1NC(=O)c1ccccc1 7.94 µM
Cc1csc(-c2ccc3cc(Cl)cc(Cl)c3n2)n1 2.51 µM
O=C(Nc1ccc(OC(F)F)cc1)c1ncc(Cl)c(Cl)c1Cl 7.08 µM
C1=C(c2ccccc2)Nc2ncnn2C1c1ccccc1 (configuration not stated) 7.08 µM
